# The list shows a part of the results. Sequences were assembled here from the parent chain. Values near 0.05 are background.
# B1: TEV protease; numbered along this chain (parent)
# chain: MGESLFKGPRDYNPISSSICHLTNESDGHTTSLYGIGFGPFIITNKHLFRRNNGTLVVQSLHGVFKVKDTTTLQQHLVDGRDMIIIRMPKDFPPFPQKLKFREPQREERICLVTTNFQTKSMSSMVSDTSCTFPSGDGIFWKHWIQTKDGQCGSPLVSTRDGFIVGIHSASNFTNTNNYFTSVPKNFMELLTNQEAQQWVSGWRLNADSVLWGGHKVFMVKPEEPFQPVKEATQL
# Variants of: B1
# Assay: raw area under fraction-flipped curve 0-4 h after induction (AUC4h, not background-subtracted), DNA-recorder readout of cleavage of the substrate (dimensionless); higher = more cleavage of the substrate by the protease variant
# Conditions: temperature: 34 °C; time window: 0-4 h after rhamnose induction
# Description: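 In vivo DNA recorder in E. coli TOP10(DE3) ΔrhaA at 34 °C. Each TEVp single-site mutant (parent TEVp 0) is paired with a single-site variant of the 7-mer TEVs (canonical ENLYFQ|S). The substrate sits between flexible linkers in a Bxb1-sfGFP-TEVs-SsrA fusion, so cleavage stabilises Bxb1 and speeds flipping of a recombination array, read by NGS. The value is the raw area under the fraction-flipped curve over 0-4 h after rhamnose induction (AUC4h), with ≥20 reads per time point. It is not background-subtracted; inactive controls average about 0.047.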
# 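Note: Bxb1 expression induced with 0.2% (w/v) L-rhamnose at OD600 near 0.5, cultures sampled hourly, flipped fraction per protease–substrate barcode pair counted by paired-end Illumina sequencing.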
Variant,area with substrate EALYFQS,area with substrate ECLYFQS,area with substrate EDLYFQS,area with substrate EELYFQS,area with substrate EGLYFQS,area with substrate EHLYFQS,area with substrate EILYFQS,area with substrate EKLYFQS,area with substrate ELLYFQS,area with substrate EMLYFQS,area with substrate EPLYFQS,area with substrate EQLYFQS,area with substrate ERLYFQS,area with substrate ESLYFQS,area with substrate ETLYFQS,area with substrate EWLYFQS,area with substrate EYLYFQS,area with substrate EFLYFQS,area with substrate EVLYFQS
H168T,0.0614,0.0591,0.059,0.0606,0.0544,0.0562,0.0516,0.0634,0.06,0.0598,0.0655,0.0613,0.0435,0.0324,0.0628,0.104,0.0477,,
I167D,0.0581,0.0521,0.0518,0.0567,0.0522,0.0516,0.0419,0.0709,0.0259,,0.0781,0.0564,0.0513,,0.0411,0.0435,,0.0565,0.0537
I167G,0.0642,0.0602,0.0599,0.0617,,,,,,,0.057,,0.0529,0.055,,,,0.0433,
P184K,0.0879,0.0736,0.0835,,,,,,0.0392,,0.0886,0.0647,,0.0714,,0.0755,,0.0895,0.0534
P184A,0.101,0.0812,0.0971,0.0872,0.0863,0.081,0.0881,0.0999,0.115,0.0923,0.0368,0.0962,0.106,0.0998,0.0808,,,,0.072
P184R,0.0821,,,0.0578,,0.0685,0.0565,,,0.117,,0.0792,,,,,,,0.0314
P184Q,0.0992,0.0882,0.0907,,0.0682,0.0943,0.081,0.0738,,,,0.0918,0.0727,0.0727,,0.0828,0.106,0.0712,0.0707
I145T,0.102,0.138,0.182,0.079,0.104,0.109,0.121,0.109,0.0835,0.119,0.176,0.113,0.0852,0.0949,0.123,0.079,0.115,0.162,0.101
K142Y,0.105,0.104,0.129,,,,0.0873,0.107,0.0869,0.0978,,,0.0913,0.0889,,,0.0881,,
D128Q,0.123,0.144,,0.132,0.121,,0.106,0.127,,0.157,,0.168,0.133,0.127,0.142,0.11,0.142,0.123,0.0677
D128S,0.2,0.139,,0.211,0.139,,0.175,0.192,0.122,0.15,0.172,0.168,0.167,0.162,0.177,,0.134,,0.123
G150T,0.0566,0.0515,0.0589,0.053,0.0569,0.0585,0.0525,0.0576,0.0676,0.0495,0.0596,0.0546,0.0475,0.0572,0.0405,0.065,,0.0555,0.055
G150N,0.0612,0.0546,0.0688,0.063,0.0562,0.0639,0.0413,0.056,0.0304,0.0495,0.0576,,0.0544,0.0467,,0.0597,,0.0573,0.0647
G150C,0.0643,0.0541,0.054,0.0558,0.0539,0.0593,0.0618,0.0632,0.0494,0.0628,,0.0602,0.0666,0.0563,0.065,0.0698,0.0323,0.0646,0.0588
W144A,0.112,0.0736,0.162,0.143,0.095,,0.0891,,0.099,,,0.0944,0.0802,0.101,,0.0958,,0.106,0.0878
W144I,0.0897,0.0834,,0.0921,0.075,0.0791,,0.082,0.0836,,0.0971,0.103,,0.0874,0.136,,,,0.0887
W144G,0.0862,,,0.1,,0.0847,0.073,0.0844,0.0714,0.103,0.0629,,0.0897,0.0825,,0.102,0.103,,0.0802
W144D,0.0887,0.0823,,0.0856,0.0806,0.0756,0.075,0.0835,0.0721,0.086,0.0633,0.081,0.0951,0.0855,,0.0891,,0.0843,
R160F,0.152,0.122,0.143,0.101,,0.144,0.0828,,0.151,0.0932,0.142,0.134,0.146,0.111,,0.139,0.0952,,0.108
R160M,0.108,0.0912,,,0.0951,,,0.109,,,,,,,,,,,
R160Q,0.127,0.151,0.112,,0.103,,0.0958,0.128,0.0678,,0.133,0.144,,0.0915,0.101,0.112,,,0.109
D149G,0.117,0.0967,0.124,0.109,0.0647,0.104,0.0776,0.0691,0.081,0.1,0.0972,0.0885,0.0774,0.0772,,0.114,,0.0867,
W141S,0.0484,0.0583,0.056,0.0504,0.0554,0.0654,0.0613,0.0812,0.0976,0.0556,0.0674,,,0.0579,,0.0575,0.0591,0.0496,0.0516
F187P,0.0657,0.0501,,0.0591,0.0402,0.0594,0.0474,0.0562,,0.049,0.0586,0.0657,0.0568,0.0514,0.0565,0.0521,,,0.0838
V126T,0.113,0.104,0.0857,0.109,0.0764,0.112,0.0958,0.123,,,,0.145,0.101,0.0981,,0.139,0.111,,

# Source: the supplement of paper PMC12217912
